Data: the RNAGym collection of RNA variant scans (doi:10.1101/gad.245936.114)
Variants at the background level are over-represented here.

B1: tRNA (parent)
chain: CUCUCGGUAGCCAAGUUGGUUUAAGGCGCAAGACUUUAAUUUAUCACUACGAAAUCUUGAGAUCGGGCGUUCGACUCGCCCCCGGGAGAUUUUUUCCUCGAGCAA

Variants of: B1
Experiment: nonsense suppression (GFP-seq) (ratio to wild type); higher = more function; SUP4oc tRNA, yeast GFP reporter sort-seq
Procedure, shortened: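 To measure nonsense suppression, tRNA variants from a library carrying ~3% random mutations were integrated into the yeast genome alongside RFP and a GFP ochre reporter under galactose control. Growth took place in raffinose/galactose medium supplemented with 80 mg/L adenine, followed by sorting into GFP/RFP bins and Illumina sequencing of each bin (phred ≥30). For each variant with ≥100 reads and ≥30 cells, the bin median GFP/RFP values were weighted by its estimated cell share per bin and referenced to the unmutated parent tRNA.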

Nonsense suppression, ≤ 0.026:
C1U A30C C83U
C1U A30C G86A
C1U A31G
C1U A31G G88A
C1U A33C U57G
C1U A33G
C1U A33G U57C A62G
C1U A33U
C1U A54C
C1U A54G C56G
C1U A54U U55C
C1U A60G
C1U A87U
C1U C3A
C1U C3A A74G C83A
C1U C3A A89G
C1U C3A G7U G25A
C1U C3A G73C A74C
C1U C3A U22C C72G A89C
C1U C3G U4A G10C G19U C68G G84U
C1U C3G U4G U21G G66A C77U
C1U C3U C64G G69U
C1U C3U G7U U76G G84C
C1U C5A U55C
C1U C5G
C1U C5G G28A U35A C80G
C1U C5U A14G A89U
C1U C5U A31C
C1U C5U G7C
C1U C5U U71G
C1U C11G C12A A33G G69U G73C
C1U C11G C64G G69U C77G
C1U C11G U55G
C1U C11U A33G G61A G67A G73U
C1U C12A
C1U C12U
C1U C12U C27G
C1U C12U U22C C64A G86C
C1U C27G A30U
C1U C27G G65A
C1U C27U
C1U C29A
C1U C29A G84C
C1U C29U
C1U C34G
C1U C34U A54C U76G G84A G88U
C1U C56G C80A
C1U C56U U57A
C1U C68U
C1U C72G
C1U C77G
C1U C77U
C1U C80A
C1U C80G
C1U C83A
C1U G6A
C1U G6U A9G G65C C75U G78A C79G
C1U G6U A33U A89G
C1U G6U G28U C29A
C1U G7C G19U U76A
C1U G7C G69C G85C
C1U G10A U17G G78A
C1U G10C
C1U G10U A62G G88C
C1U G10U C11A G15A
C1U G10U G15U C68G
C1U G15A A23U C68A
C1U G15A A24G A87G
C1U G15A A89G
C1U G15A C29U
C1U G15U C56A
C1U G15U U17G U35C U57C A87G
C1U G15U U17G U35C U57C G78U A87G
C1U G18A
C1U G18A A30C
C1U G18A A31U U70C G86A
C1U G18A U21G C27U
C1U G18C G32U C77G
C1U G18U U21A G26U
C1U G19C G88C
C1U G19U
C1U G19U G28C U57C G84A
C1U G19U U20G U76A G86U
C1U G19U U35G A87C
